Results from publication PMC4336329 (PLoS ONE, 2015).
Among all 310,000 compounds or so, about 14,000 (4.5%) showed an effect of 50% or more. Effects have a minus sign here. The list shows a part of the results.

Molecular target: human ether-à-go-go-related gene (hERG) potassium channel (human, UniProt Q12809)
Assay: primary screen, population patch clamp on CHO cells stably expressing hERG
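Also: peak tail current of the secondary pulse compared with the same well before compound.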

human ether-à-go-go-related gene (hERG) potassium channel, sequence (Q12809 whole entry, looked up): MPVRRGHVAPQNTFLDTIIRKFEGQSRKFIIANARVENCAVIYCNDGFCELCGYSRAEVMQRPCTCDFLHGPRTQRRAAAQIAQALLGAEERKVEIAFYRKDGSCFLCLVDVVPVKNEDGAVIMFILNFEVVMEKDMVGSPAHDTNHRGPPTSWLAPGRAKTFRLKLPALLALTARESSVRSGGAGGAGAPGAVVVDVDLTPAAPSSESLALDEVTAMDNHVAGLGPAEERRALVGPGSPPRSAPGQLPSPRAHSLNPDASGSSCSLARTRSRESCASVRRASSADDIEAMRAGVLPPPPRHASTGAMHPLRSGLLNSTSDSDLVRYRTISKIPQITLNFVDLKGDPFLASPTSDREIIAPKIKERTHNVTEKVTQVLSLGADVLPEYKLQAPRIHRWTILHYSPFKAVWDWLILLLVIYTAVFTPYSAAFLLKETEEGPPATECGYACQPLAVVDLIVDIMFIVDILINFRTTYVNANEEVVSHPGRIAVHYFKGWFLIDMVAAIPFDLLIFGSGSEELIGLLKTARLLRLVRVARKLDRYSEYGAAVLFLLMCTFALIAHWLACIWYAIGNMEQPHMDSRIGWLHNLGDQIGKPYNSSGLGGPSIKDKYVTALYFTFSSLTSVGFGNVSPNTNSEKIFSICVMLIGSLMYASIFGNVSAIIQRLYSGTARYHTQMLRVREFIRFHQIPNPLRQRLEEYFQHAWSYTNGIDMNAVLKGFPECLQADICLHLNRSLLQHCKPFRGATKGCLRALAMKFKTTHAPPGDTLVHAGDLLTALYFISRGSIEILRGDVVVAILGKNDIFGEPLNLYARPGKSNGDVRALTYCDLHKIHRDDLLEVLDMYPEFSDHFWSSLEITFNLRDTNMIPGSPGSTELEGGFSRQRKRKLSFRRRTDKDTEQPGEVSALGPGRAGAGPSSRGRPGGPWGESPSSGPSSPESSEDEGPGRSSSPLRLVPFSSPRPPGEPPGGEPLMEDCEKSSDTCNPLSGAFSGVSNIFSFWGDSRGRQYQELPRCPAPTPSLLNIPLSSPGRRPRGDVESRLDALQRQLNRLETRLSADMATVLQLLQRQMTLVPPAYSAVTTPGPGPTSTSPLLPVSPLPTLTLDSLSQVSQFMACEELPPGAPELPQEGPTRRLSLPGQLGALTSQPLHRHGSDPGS

Row | Structure (SMILES) | hERG current change (%, negative = inhibition) at 10uM [%]
1 | O=C(OCc1nnc(-c2ccc([N+](=O)[O-])cc2)o1)C1CCN(C(=O)c2ccc(F)cc2)CC1 | -76
2 | OC1CCC(Nc2ncnc3sccc23)CC1 (stereo not shown) | 13.2
3 | C1CCc2nc3c(nc2C1)CCCC3 | -10.7
4 | COc1ccc(N2C(=O)CC(SCC(=O)O)C2=O)cc1 (stereo not shown) | 2.23
5 | COCCn1c(Cc2ccccc2)nnc1SCC(=O)NC1CCCCC1 | 23.8
6 | COCCCN(CC(=O)O)S(=O)(=O)c1cccc(Cl)c1 | 16.3
7 | COc1cc(CC(NC(C)=O)C(=O)NC2CCN(C(=O)C3CC3)CC2)cc(OC)c1 (stereo not shown) | 21.7
8 | COc1ccc(-c2oc3cc(OC)c(O)c(OC)c3c(=O)c2OC)cc1O | 3.37
9 | COc1ccc(C2CC(=O)c3c(O)cc(O)cc3O2)c(CC=C(C)C)c1OC (stereo not shown) | 5.41
10 | Cc1onc(-c2ccccc2)c1C(=O)OCC(=O)N1CCN(c2ccccc2)CC1 | -37.5
11 | Cc1ccc(C(=O)Nc2ccc3ccccc3n2)cc1 | -5.04
12 | CN(CC(=O)Nc1cccc(F)c1)C(=O)c1cc(-c2ccccc2)nc2ccccc12 | 19.5
13 | Cc1cccc(C)c1OCC(=O)Nc1ccccc1C(F)(F)F | 8.6
14 | O=C(O)c1ccc(S(=O)(=O)N2CCSCC2)cc1 | 23.3
15 | CCOCCCNC(=O)C1c2ccccc2C(=O)N2CCc3ccccc3C12 (stereo not shown) | 3.49
16 | O=c1c2ccccc2nnn1CSc1nnc2ccccn12 | -4.97
17 | CC1(C)CC(NC(=O)c2cccc(F)c2)CC(C)(C)N1 | 17.2
18 | CCC(=O)OC1(c2ccccc2)C(C)CN(C)CC1C.Cl (stereo not shown) | 6.76
19 | Cc1cc(C)n(C(=O)COc2ccccc2[N+](=O)[O-])n1 | 11.8
20 | COC(=O)[C@H](Cc1ccccc1)NC(=O)Nc1ccc(C)cc1 | 18.1

Row | Structure (SMILES) | hERG current change (%, negative = inhibition) at 10uM [%]
21 | CCN1C(=O)[C@H]2[C@@H](c3ccc(-c4ccc(OC)cc4)cc3)N3CCCC[C@@]3(C(=O)OC)[C@H]2C1=O.O=C(O)C(F)(F)F | -2.68
22 | Cc1cc(C)c(NC(=O)C2CCN(c3cnccn3)CC2)c(C)c1 | 0.706
23 | O=C(O)c1ccccc1N=Cc1c(O)n(-c2nccs2)c(=O)c2ccccc12 | 15.1
24 | COc1ccccc1CNC(c1ccccc1)c1ccccc1 | -2.31
25 | C[n+]1ccc(-c2ccncc2)cc1.[I-] | 18.4
26 | CCCCn1c(NCc2ccccc2O)nc2ccccc21 | 12.8
27 | CCOC(=O)c1ccccc1OCc1cc(/C=N/NC(=O)c2cccnc2)ccc1OC | -18.7
28 | COc1ccc(-c2nc(-c3cccnc3)no2)cc1OC | 7.22
29 | O=C(c1cc(-c2ccccc2)n[nH]1)N1CCN(S(=O)(=O)c2ccccc2)CC1 | -4.84
30 | O=[N+]([O-])c1ccc2c(c1)C=C1CCCCC1(N1CCCCC1)O2 (stereo not shown) | 1.53
31 | O=C(NC1CCN(Cc2ccccc2)CC1)c1cccc(Br)c1 | -63.8
32 | COc1ccc(C)cc1NC(=O)NNS(=O)(=O)c1ccc(NC(C)=O)cc1 | 24
33 | COc1ccc(CN2CCCC(CNC(=O)c3ccc(F)cc3)C2)cc1OC (stereo not shown) | -70.6
34 | COC(=O)CSc1nnc(-c2cccnc2)n1-c1cc(OC)cc(OC)c1 | -19.3
35 | O=S(=O)(NCc1ccccc1)c1cccc2nonc12 | -7.98
36 | O=C(CSc1nc(C(F)(F)F)cc(=O)[nH]1)Nc1cccc2ccccc12 | -10
37 | Fc1cc(F)cc(NC(=S)Nc2ccccc2N2CCOCC2)c1 | -31.8
38 | Cc1cccc(-c2nc(N)nc(N)n2)c1 | 8.37
39 | Cc1cc2c(cc1C)CSC(c1ccc3ccccc3c1O)SC2 | 16.8
40 | CCC1CCCCN1CC(C)(C)NS(=O)(=O)c1ccccc1 (stereo not shown) | -2.74

Row | Structure (SMILES) | hERG current change (%, negative = inhibition) at 10uM [%]
41 | Cc1cccc2sc(NNC(=O)c3ccc(S(=O)(=O)N4CCc5ccccc5C4)cc3)nc12 | 20.7
42 | O=C1CC(c2ccccc2)n2nc(NC(=O)c3ccccc3)nc2N1 (stereo not shown) | 8.09
43 | COCC(C)NC(=O)c1nn(Cc2ccccc2)c(=O)c2ccccc12 (stereo not shown) | -8.34
44 | O=C(O)CCC(=O)N(Cc1ccccc1)Cc1ccccc1 | 11.5
45 | O=C(NCCCN1CCC(Cc2ccccc2)CC1)C1CCC(=O)N1C1CCCC1 (stereo not shown) | 6.52
46 | CCOC(=O)c1ccc(NC(=O)CSc2ccc(-c3cccnc3)nn2)cc1 | -12.5
47 | Cn1c(/C=N/O)nc2ccccc21 | 10.9
48 | CCONC(=O)Nc1ccccc1 | 24.8
49 | CC(O)CNc1ncnc2cc(-c3ccc(F)cc3)sc12 (stereo not shown) | -13.8
50 | Cc1cnc(C(=O)OCC(=O)Nc2ncc(Cl)cc2Cl)cn1 | 6.91
51 | Cl.Oc1cccc(Nc2ncnc3c2oc2ccccc23)c1 | 13.2
52 | CCOC(=O)Cc1c(C)nc2cc(-c3ccc(C)cc3)[nH]n2c1=O | 1.36
53 | CCN1CCN(CCCNC(=O)c2cn(CCOC)c(=O)c3c2c2ccccc2n3C)CC1 | 0.801
54 | CCOC(=O)c1sc(N2C(=O)C(O)=C(C(=O)c3ccc(C)o3)C2c2ccc(OC)c(OC)c2)nc1C (stereo not shown) | 8.86
55 | CCOc1ccccc1N(CC(=O)Nc1ccccc1C(=O)N1CCCC1)S(C)(=O)=O | 20.8
56 | O=C(Cn1cccc1C(=O)c1ccccc1)NCc1ccccc1Cl | 15.5
57 | c1ccc(-c2nc3ccccc3nc2N2CCOCC2)cc1 | -54.7
58 | CCOC(=O)c1ccc2nc(C)c3c(c2c1)OC(C)C3 (stereo not shown) | -49.2
